In all, about 380,000 compounds went through this assay and about 4,000 (1.1%) were called active. The shares of active, inactive and inconclusive entries below differ from those in the screen. Calls come from the whole dose curve; as a rule, active = well fitted activation curve with a large enough effect; inconclusive = small, poorly fitted or top-dose-only effect; inactive = no such curve, though single readings can be large or run the other way. Potencies beside an inconclusive call are fits to weak or partial responses and may not hold up.
Experiment: qHTS Assay to Identify Small Molecule Activators of BRCA1 Expression; note: nearly all actives have a fitted effect of over 80% in size
Settings: MCF7-BRCA1-FFLuc reporter, luminescence, 48 h; activation: at 46.1 µM (top of the series), scaled: vehicle 0%, 10 µM genistein 100% unless noted
Summary of the method: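 Reporter cells (MCF7, BRCA1 promoter-firefly luciferase) received library compounds across a concentration series for 48 h. End-point luminescence was measured and concentration-effect curves derived after normalization.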
In the case of `CCOc1ccccc1C=NNC(=O)C(=O)NN=Cc1ccccc1OCC`, the Potency is reported as “inactive”. For `O=C(c1cc(-c2ccc(Cl)cc2Cl)on1)N1CCCCCC1`, the Potency was inconclusive: 0.794 µM [activator, full curve, poor fit]. With `CCCc1cc(-c2ccc3c(c2)COc2c4ccccc4nn2-3)on1` the Potency was inconclusive: 1.41 µM [activator, full curve, poor fit]. With `Cc1nc([N+](=O)[O-])c(N2CCN(Cc3ccccc3)CC2)n1Cc1ccccc1` the Potency was “inactive”. In the case of `Cc1cccc(-n2ncc3c(N4CC(C)CC(C)C4)ncnc32)c1` (stereo not given), the Potency is reported as inconclusive: 7.94 µM [activator, partial curve, poor fit]. With `COc1cc(C(=O)N/N=C(\C)Cc2ccccc2)cc(OC)c1OC` the Potency was “inactive”. For `COc1ccc(C(=O)COC(=O)Cc2c[nH]c3ccccc23)c(OC)c1`, the Potency was “inactive”. In the case of `O=C(O)c1c2c(nc3ccccc13)/C(=C/c1ccc(OC(F)F)cc1)CCC2`, the Potency is reported as inconclusive: 11.2 µM [activator, partial curve, poor fit]. In the case of `Cc1ccc(C(=O)CCc2ccc(N)cc2)cc1`, the Potency is reported as inconclusive: 15.8 µM [activator, single point]. With `O=C(Nc1ccc2oc(-c3cccc4ccccc34)nc2c1)c1ncn[nH]1` the Potency was active: 2.24 µM. In the case of `Nc1nc(SCc2ccccn2)c2ncn(C3CCCC3)c2n1`, the Potency is reported as inconclusive: 11.2 µM [activator, partial curve, poor fit]. With `Cc1ccc(/C(N)=N/OC(=O)CCCc2ccccc2)cc1` the Potency was inconclusive: 10 µM [activator, partial curve, poor fit]. With `Cc1cccc(-n2ncc3c(NCCN4CCOCC4)ncnc32)c1` the Potency was inconclusive: 15.8 µM [activator, single point]. In the case of `O=C(Nc1nnc(-c2cccs2)o1)c1cccc(Oc2ccccc2)c1`, the Potency is reported as “inactive”. With `C/C(N)=C(/C#N)C(=O)CSc1nnc(Nc2ccccc2)s1` the Potency was inconclusive: 14.1 µM [activator, partial curve, poor fit]. For `N#C/C(C(=O)Oc1ccccc1)=C1\C=CC=CN1`, the Potency was active: 3.16 µM. With `O=C(N/N=C/c1c[nH]c2ccccc12)c1ccc(Br)cc1` the Potency was inconclusive: 12.6 µM [activator, partial curve, poor fit]. In the case of `Cc1cc(=O)[nH]c2nnc(SCC(=O)N3CC(C)OC(C)C3)n12` (stereo not given), the Potency is reported as “inactive”. For `Cc1c(C(=S)Nc2ccccc2)cnn1-c1ccccc1`, the Potency was active: 7.94 µM. In the case of `CS(=O)(=O)N1CCN(c2nc3ccccc3s2)CC1`, the Potency is reported as active: 12.6 µM. With `CN(Cc1ccccc1)C(=O)c1nc2ccccn2c1CNCCCOc1cccnc1` the Potency was “inactive”. With `CCC(Cc1ccccc1)NC(=O)c1ccc2nc(N3CCC(C)CC3)sc2c1` (stereo not given) the Potency was inconclusive: 1.26 µM [activator, full curve, poor fit]. With `Cc1ccc(C(=O)NCCC(=O)N2CCOCC2)cc1` the Potency was inconclusive: 2.51 µM [activator, partial curve, poor fit]. For `COc1ccccc1NC(=O)CSc1nnc(-c2ccccc2)o1`, the Potency was inconclusive: 3.98 µM [activator, full curve, poor fit]. With `CCN(CC1CCCO1)C(=O)CCc1nnc(CCc2ccccc2)o1` (stereo not given) the Potency was inconclusive: 15.8 µM [activator, single point]. With `COc1ccc2oc(C(=O)N3CCCc4ccccc43)c(C)c2c1` the Potency was inconclusive: 14.1 µM [activator, partial curve, poor fit]. With `CCOc1ccc(NC(=O)c2ccc(CC)s2)c([N+](=O)[O-])c1` the Potency was inconclusive: 4.47 µM [activator, full curve, poor fit]. With `Brc1ccc(-c2nnc(Cc3ccccc3)o2)cc1` the Potency was active: 11.2 µM. For `Cn1c(-c2ccc([N+](=O)[O-])cc2)nc2ccccc21`, the Potency was inconclusive: 12.6 µM [activator, partial curve, poor fit]. In the case of `Nc1ccc(-c2cnc(-c3ccc(N)cc3)nc2)cc1`, the activation is reported as inconclusive: -43.6% [activator]. For `CNc1ccccc1C(C)(C)c1cc(-c2ccc(F)cc2)no1`, the Potency was “inactive”. For `Cc1ccc(-c2csc(NC(=O)c3ccccc3F)c2C(=O)O)cc1`, the Potency was inconclusive: 8.91 µM [activator, partial curve, poor fit]. With `CC(=Nc1ccc(Br)cc1)c1sc2ccccc2c1O` the Potency was active: 3.98 µM. With `C/C(Cc1ccccc1)=N\NC(=O)c1ccccn1` the Potency was active: 2.24 µM. In the case of `Cc1cc(=O)[nH]c(SCC(=O)c2ccc(C(C)C)cc2)n1`, the Potency is reported as inconclusive: 15.8 µM [activator, single point]. In the case of `CC(C)Cc1nnc(NC(=O)CSc2ccccn2)s1`, the Potency is reported as inconclusive: 3.16 µM [activator, single point]. In the case of `O=[N+]([O-])c1ccc(CSc2nc3ccccc3o2)cc1`, the Potency is reported as inconclusive: 1.12 µM [activator, full curve, poor fit]. In the case of `Cc1ccc(OC(=O)c2ccc(S(=O)(=O)N(C)C)cc2)c(-n2nc3ccccc3n2)c1`, the Potency is reported as active: 12.6 µM. In the case of `Cc1ccc(OCc2nc3ccccc3[nH]2)cc1`, the Potency is reported as inconclusive: 1.26 µM [activator, full curve, poor fit]. In the case of `O=C(NC1CCCC1)c1cc2cc(Br)ccc2o1`, the Potency is reported as active: 3.16 µM. For `O=C(NCc1cccs1)Nc1ccc2c(c1)OCO2`, the Potency was active: 10 µM. For `Cc1nn(C(=O)C2CC2)c(C)c1Sc1ccc(Cl)cc1`, the Potency was “inactive”. With `Cc1sc(NC(=O)C2=COCCO2)c(C#N)c1C` the Potency was active: 12.6 µM. With `c1ccc(OCc2nc3ccccc3[nH]2)cc1` the Potency was inconclusive: 3.16 µM [activator, partial curve, poor fit]. With `Nc1cccc2c1C(=O)N(CCOc1ccc(F)cc1)C2=O` the activation was inconclusive: 76.6% [activator]. With `Clc1ccc2c(ccc[n+]2CCc2ccccc2)c1` the Potency was “inactive”. For `Cc1ccc(Cn2ccnc2C(=O)Nc2ccccc2)cc1`, the Potency was active: 12.6 µM. In the case of `Cc1ccc(/C=N/NC(=O)c2ccco2)s1`, the Potency is reported as inconclusive: 8.91 µM [activator, partial curve, poor fit]. For `CCOC(=O)N/N=C\C=C\c1ccc2c(c1)OCO2`, the Potency was active: 4.47 µM. With `COc1ccc2c(c1)OC[C@H]1[C@H]2N2C(=O)CN(Cc3ccc(Cl)cc3)C(=O)[C@@]2(C)[C@H]1c1ccccc1` the Potency was “inactive”. With `O=C(CSc1nccn1Cc1ccco1)Nc1cccc(F)c1` the Potency was inconclusive: 11.2 µM [activator, single point]. For `Cc1cc(C(=O)COC(=O)c2cccn2C)c(C)n1Cc1ccco1`, the Potency was inconclusive: 0.631 µM [activator, full curve, poor fit]. In the case of `COc1ccc(-c2nc(-c3cccnc3)no2)cc1OC`, the Potency is reported as inconclusive: 17.8 µM [activator, partial curve, poor fit]. In the case of `CCOc1ccc(NC(=O)CSc2nccn2C)cc1`, the Potency is reported as inconclusive: 10 µM [activator, partial curve, poor fit]. For `Nn1c(-c2ccccn2)nnc1-c1ccccn1`, the Potency was inconclusive: 15.8 µM [activator, partial curve, poor fit]. In the case of `O=C(Cc1ccccc1)N1CCc2ccccc21`, the Potency is reported as inconclusive: 11.2 µM [activator, partial curve, poor fit]. For `Cc1ccc(NC(=O)CNC(C)c2ccccc2)cc1` (stereo not given), the Potency was inconclusive: 14.1 µM [activator, single point]. For `CC(C)(C)c1cc(NC(=O)Nc2ccccc2)no1`, the Potency was inconclusive: 2 µM [activator, full curve, poor fit]. For `CCc1cccc2c(C(=O)COC(=O)[C@@H]3CC(O)CN3S(=O)(=O)c3ccccc3[N+](=O)[O-])c[nH]c12` (stereo not given in full), the Potency was “inactive”. In the case of `Cc1ccc(OCC(=O)O/N=C(\N)c2cccnc2)cc1`, the Potency is reported as inconclusive: 22.4 µM [activator, single point]. With `COCCNC(=S)N/N=C(\C)c1ccccc1O` the Potency was inconclusive: 31.6 µM [activator, single point]. In the case of `CCCNC(=O)c1c(Cl)cnn1-c1ccc(C)cc1`, the Potency is reported as active: 10 µM. With `Cc1ccc(C=NNc2ccc([N+](=O)[O-])cn2)cc1` the Potency was inconclusive: 2.82 µM [activator, full curve, poor fit]. In the case of `Cc1ccc(Sc2cnc3ccccc3n2)cc1`, the Potency is reported as active: 7.08 µM. For `Cc1cc(C)n(C(N)=NC(=O)c2ccc([N+](=O)[O-])cc2)n1`, the Potency was inconclusive: 0.708 µM [activator, full curve, poor fit]. For `Cc1ccc(NC(=O)CC2SC(=O)NC2=O)cc1` (stereo not given), the Potency was “inactive”. In the case of `CCc1nc(SCC(=O)Nc2ccc(N(C)C)cc2)c2ccccc2n1`, the Potency is reported as “inactive”. For `CCOC(=O)c1cnc(SCC(C)C)nc1N`, the Potency was active: 7.94 µM. For `COc1ccc(-c2nn(-c3ccccc3)cc2CO)cc1`, the Potency was inconclusive: 10 µM [activator, partial curve, poor fit]. In the case of `Cc1nn(-c2ccc(N3CCOCC3)nn2)c(C)c1CCC(=O)Nc1ccccc1`, the Potency is reported as inconclusive: 11.2 µM [activator, partial curve, poor fit]. For `Cc1ccc(NC(=O)c2cc(C)nc3ccccc23)cc1`, the Potency was “inactive”. With `COc1ccc(/C=C/C(=O)O/N=C(\N)c2ccccc2)cc1OC` the Potency was inconclusive: 7.08 µM [activator, partial curve, poor fit]. For `O=C(Nc1ccccn1)c1ccccc1`, the Potency was inconclusive: 8.91 µM [activator, partial curve, poor fit]. For `COc1ccc(-n2nc3ccc(N)cc3n2)cc1Cl`, the Potency was inconclusive: 2.51 µM [activator, full curve, poor fit]. For `O=C(CC(SCc1ccco1)c1ccc(O)cc1)c1cccs1` (stereo not given), the Potency was inconclusive: 11.2 µM [activator, partial curve, poor fit].
Potency is the fitted concentration of half-maximal effect; tags give direction and shape of the fitted curve.
